Enrichment ratio data for 153 variants are collected here from a collection of fitness landscapes (doi:10.1126/science.1257360).

B1: PhoQ; a variant is named by its letters at X, in order, P23837 (parent)
chain: MKKLLRLFFPLSLRVRFLLATAAVVLVLSLAYGMVALIGYSVSFDKTTFRLLRGESNLFYTLAKWENNKLHVELPENIDKQSPTMTLIYDENGQLLWAQRDVPWLMKMIQPDWLKSNGFHEIEADVNDTSLLLSGDHSIQQQLQEVREDDDDAEMTHSVAVNVYPATSRMPKLTIVVVDTIPVELKSSYMVWSWFIYVLSANLLLVIPLLWVAAWWSLRPIEALAKEVRELEEHNRELLNPATTRELTSLVRNLNRLLKSERERYDKYRTTLTDLTHSLKTPLXXLQXXLRSLRSEKMSVSDAEPVMLEQISRISQQIGYYLHRASMRGGTLLSRELHPVAPLLDNLTSALNKVYQRKGVNISLDISPEISFVGEQNDFVEVMGNVLDNACKYCLEFVEISARQTDEHLYIVVEDDGPGIPLSKREVIFDRGQRVDTLRPGQGVGLAVAREITEQYEGKIVAGESMLGGARMEVIFGRQHSAPKDE

Some of the results follow.

This assay covers variants of B1. As to the kind of experiment: enrichment ratio after two sorts for PhoP signalling (ratio (wild type AVST 3.29)); higher = more functional. The conditions noted are these: with PhoP (E. coli).
For ACTI, the enrichment ratio is 5.16. For the variant PVKT, the enrichment ratio is not above 0.25. With PICF, the enrichment ratio is not above 0.25. Consider GIKF, for which the enrichment ratio was not above 0.25. The figure for QQYP is not above 0.25; for SPLQ it is not above 0.25; for NQYR it is not above 0.25. With SQDP, the enrichment ratio was not above 0.25. Take DNSP: the enrichment ratio is not above 0.25. The figure for TQQG is 16.8.

In the case of LFYL, the enrichment ratio was not above 0.25. In the case of WFCM it was not above 0.25; in that of DSRL, not above 0.25. Take DRKE: the enrichment ratio was not above 0.25. In the case of RKCE it was not above 0.25; in that of WKPG, not above 0.25; in that of QFFD, not above 0.25. In the case of HERW, the enrichment ratio was not above 0.25.

Consider IERK, for which the enrichment ratio was not above 0.25. Regarding NFQA, the enrichment ratio is not above 0.25. Consider DCSM, for which the enrichment ratio was not above 0.25. With AHEE, the enrichment ratio was not above 0.25. As to TIPS, the enrichment ratio was not above 0.25. Consider LWFG, for which the enrichment ratio was not above 0.25. For EKIV, the enrichment ratio is not above 0.25. As to KKVS, the enrichment ratio was not above 0.25.

For KVWG, the enrichment ratio was not above 0.25. As to TRII, the enrichment ratio came to 0.725. Take PECK: the enrichment ratio is not above 0.25. In the case of GLMG it was not above 0.25; in that of RWHG, not above 0.25; in that of HHAA, not above 0.25. With SNEI, the enrichment ratio is not above 0.25.

In the case of NNIA, the enrichment ratio was not above 0.25. Consider GMYT, for which the enrichment ratio was not above 0.25. As to CLLV, the enrichment ratio is not above 0.25.

For WEMI, the enrichment ratio was not above 0.25. The figure for LGIF is not above 0.25; for YGIP it is not above 0.25; for FVVW it is not above 0.25. On to YNGQ, for which the enrichment ratio was not above 0.25. For the variant RDVR, the enrichment ratio is not above 0.25.

For the variant YFLW, the enrichment ratio was not above 0.25.

Take SAIS: the enrichment ratio was found to be 3.33. In the case of LMTI it was not above 0.25; in that of LNKE, not above 0.25; in that of TKVA, 18.4. In the case of IVIF it was not above 0.25; in that of ENSY, not above 0.25. The figure for PGEF is not above 0.25; for ALWH it is not above 0.25.

Consider ACAE, for which the enrichment ratio is 15.5. As to VDHH, the enrichment ratio was not above 0.25. As for MKML, the enrichment ratio is not above 0.25. Turning to SDEH, the enrichment ratio was not above 0.25.

Consider AEVH, for which the enrichment ratio stood at 6.64. The figure for MRPV is not above 0.25; for HGFN it is not above 0.25; for IFHD it is not above 0.25. With NVCV, the enrichment ratio was not above 0.25.

With TQSR, the enrichment ratio is not above 0.25. In the case of RMGP, the enrichment ratio was not above 0.25.

Consider FTIL, for which the enrichment ratio worked out at 1.37. For the variant IGPV, the enrichment ratio was not above 0.25. Take QHAQ: the enrichment ratio is not above 0.25. Take TYMA: the enrichment ratio turned out to be 1.56.

With PFVQ, the enrichment ratio was not above 0.25. With EPDY, the enrichment ratio is not above 0.25. Turning to PMTN, the enrichment ratio was not above 0.25.

On to ELMN, for which the enrichment ratio is not above 0.25. The figure for HPMP is not above 0.25. LWHA: the enrichment ratio was not above 0.25. Consider RFWW, for which the enrichment ratio is 2.27. As to NVLG, the enrichment ratio was not above 0.25. In the case of RPEN it was not above 0.25. In the case of NFLY it was not above 0.25; in that of PSFH, not above 0.25; in that of ACSM, 13.2.

As for IKAK, the enrichment ratio was not above 0.25. As for RAQT, the enrichment ratio was not above 0.25.

Regarding KGCY, the enrichment ratio was not above 0.25.

KNIR: the enrichment ratio was not above 0.25. As for VVGK, the enrichment ratio was not above 0.25. Turning to KLET, the enrichment ratio was not above 0.25. Consider YVYT, for which the enrichment ratio was not above 0.25. Consider AKLW, for which the enrichment ratio is not above 0.25. On to IGEA, for which the enrichment ratio was not above 0.25. For FWCS, the enrichment ratio stood at 1.37. In the case of IWEF it was not above 0.25; in that of QFIQ, not above 0.25. The figure for TFAR is not above 0.25; for LAFF it is 0.609; for LSFT it is 0.638. With KVHI, the enrichment ratio is not above 0.25.

Turning to GNAS, the enrichment ratio is 4.84. On to IWFW, for which the enrichment ratio was not above 0.25. As for VNLS, the enrichment ratio was found to be 4.23. Regarding ICLP, the enrichment ratio was not above 0.25. In the case of VMTI, the enrichment ratio is not above 0.25. In the case of LIFC it was not above 0.25.

Take YCIL: the enrichment ratio was not above 0.25. Regarding DHDA, the enrichment ratio is not above 0.25.

With KYPW, the enrichment ratio was not above 0.25.

As for AECQ, the enrichment ratio stood at 30.9.

With DQCW, the enrichment ratio was not above 0.25. For the variant DAFA, the enrichment ratio was not above 0.25.

Regarding RILK, the enrichment ratio is not above 0.25. On to MHYN, for which the enrichment ratio was not above 0.25. LTTM: the enrichment ratio is not above 0.25. Regarding VPHG, the enrichment ratio was not above 0.25. DWCH: the enrichment ratio is not above 0.25. In the case of WRKQ it was not above 0.25. Take DIDR: the enrichment ratio is not above 0.25. Turning to SECS, the enrichment ratio came out at 20.4. In the case of IKSC it was not above 0.25; in that of NIMC, not above 0.25; in that of STYA, not above 0.25. In the case of DIHT it was not above 0.25. The figure for ESSN is not above 0.25; for KVCG it is not above 0.25; for QIVK it is not above 0.25. Regarding KIVI, the enrichment ratio was not above 0.25. Consider FMQC, for which the enrichment ratio was not above 0.25. In the case of YCNH it was not above 0.25; in that of NWHM, not above 0.25; in that of TQRT, not above 0.25. In the case of MLQM, the enrichment ratio was not above 0.25. The figure for LGEA is not above 0.25. On to EVFN, for which the enrichment ratio is not above 0.25.

MEIC: the enrichment ratio was found to be 11. Turning to GQYV, the enrichment ratio is not above 0.25.

YFLG: the enrichment ratio was not above 0.25.

For the variant THPS, the enrichment ratio was not above 0.25. Consider TVVK, for which the enrichment ratio was not above 0.25.

With KDWE, the enrichment ratio was not above 0.25. In the case of SEAR, the enrichment ratio was found to be 9.64.

In the case of PKKI, the enrichment ratio was not above 0.25. Turning to AFGL, the enrichment ratio is not above 0.25.

Consider VTAC, for which the enrichment ratio is not above 0.25.

On to RIGD, for which the enrichment ratio was not above 0.25. Regarding WIMA, the enrichment ratio is not above 0.25. For HKFP, the enrichment ratio is not above 0.25. For the variant VHPA, the enrichment ratio is not above 0.25.

Consider PSSL, for which the enrichment ratio is not above 0.25. With FVGH, the enrichment ratio was not above 0.25. As to SQVN, the enrichment ratio turned out to be 20.3. In the case of MNVL it was 2.78; in that of HGHD, not above 0.25. As to LVPQ, the enrichment ratio is not above 0.25. In the case of SYDT, the enrichment ratio is not above 0.25.

For LEWE, the enrichment ratio is not above 0.25. For RKCN, the enrichment ratio is not above 0.25. The figure for TMKN is not above 0.25.
